Measurements reported in PubChem BioAssay AID588855 (National Center for Advancing Translational Sciences (NCATS), 2011).
About 5,000 (1.2%) of roughly 410,000 compounds were called active. Inconclusive means that the source gave no clear call. Such entries were picked first, then a sample of the others. Calls come from the whole dose curve; as a rule, active = well fitted inhibition curve with a large enough effect; inconclusive = small, poorly fitted or top-dose-only effect; inactive = no such curve, though single readings can be large or run the other way. Where the call is inconclusive, the potency comes from a doubtful curve fit.
Potency is the fitted concentration of half-maximal effect; tags give direction and shape of the fitted curve.

Assay: qHTS for Inhibitors of TGF-b; note: nearly all actives have a fitted effect of over 65% in size
Conditions: HepG2 CAGA-GFP TGF-b/SMAD3 reporter, GFP fluorescence, 18 h, TGF-beta stimulated, 500 pg/mL final; series mostly up to 46.1 µM
Procedure, shortened: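 Inhibition was scored as loss of TGF-beta-induced (500 pg/mL final, 18 hours, 37 degrees C) GFP in HEPG2 cells carrying a CAGA-GFP reporter, in DMEM with 1% FBS. Well GFP was summed per cell; Activity was normalised to unstimulated and stimulated DMSO wells, then concentration-response fitting.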
In the case of `COc1ccccc1NC1=C(Cl)C(=O)OC1OC(=O)c1ccco1` (stereo unspecified), the Potency is reported as “inactive”. In the case of `CCOC(=O)COc1c(Cl)cc(C2NC(=S)NC(c3ccccc3)=C2C(C)=O)cc1OCC` (stereo unspecified), the Potency is reported as “inactive”. In the case of `CCOc1cc(CNCc2ccc3c(c2)OCO3)ccc1OC`, the Potency is reported as “inactive”. For `Cc1cc(C)cc(NC(=O)Cn2c(=O)oc3cc(S(=O)(=O)N4CCC(C)CC4)ccc32)c1`, the Potency was active: 7.94 µM. With `O=[N+]([O-])c1ccc(NS(=O)(=O)c2ccc(Cl)c(Cl)c2)cc1` the Potency was active: 10 µM. In the case of `O=C(CCc1nnc(-c2ccc(-c3ccccc3)cc2)o1)NCCc1ccccn1`, the Potency is reported as “inactive”. For `Cc1cccc(C)c1NC(=O)C(c1ccccc1OC(F)(F)F)N1CCN(C/C=C/c2ccccc2)CC1` (stereo unspecified), the Potency was inconclusive: 35.5 µM [inhibitor, single point]. For `COc1ccc(F)cc1S(=O)(=O)Nc1ccc2c(c1)CCCN2C(=O)c1cccs1`, the Potency was inconclusive: 17.8 µM [inhibitor, single point]. In the case of `N=c1sccn1CC(=O)Nc1ccc(SC(F)F)cc1`, the Potency is reported as inconclusive: 35.5 µM [inhibitor, partial curve, poor fit]. With `Cn1c(=S)c2[nH]c(SCC3CCCO3)nc2n(C)c1=O` (stereo unspecified) the Potency was inconclusive: 10 µM [inhibitor, partial curve, poor fit]. With `O=C(Nc1nccs1)c1sc2cc(Cl)ccc2c1Cl` the Potency was inconclusive: 6.31 µM [inhibitor, partial curve, poor fit]. For `CCn1c2c(c(=O)n3ncc(C(=O)N4CCN(c5ccc(C(C)=O)cc5)CC4)c13)CN(Cc1ccc(OC)cc1)CC2`, the Potency was inconclusive: 1.41 µM [inhibitor, full curve]. For `Cc1ccc(C)c(N2C(=O)N(Cc3cccc(C(F)(F)F)c3)c3ccccc3S2(=O)=O)c1`, the Potency was “inactive”. In the case of `OC(CNCc1ccccc1)Cn1ccc2ccccc21` (stereo unspecified), the Potency is reported as “inactive”. With `O=C(Nc1ccccc1)c1cccc2c(-c3cccnc3)coc12` the Potency was “inactive”. In the case of `Cc1ccc(C)c(S(=O)(=O)NCC(c2ccco2)N2CCc3ccccc3C2)c1` (stereo unspecified), the Potency is reported as inconclusive: 5.01 µM [inhibitor, partial curve, poor fit]. For `Cc1cc(=O)[nH]c(NC(=O)Cc2ccccc2)n1`, the Potency was “inactive”. In the case of `COc1cc(C(=O)OCC(=O)Nc2ccc(OC(F)F)cc2)cc(OC)c1OC`, the Potency is reported as inconclusive: 0.251 µM [inhibitor, full curve]. With `COc1ccccc1OCCOc1ccc(/C=C2\C(=N)N3N=C(S(C)(=O)=O)SC3=NC2=O)cc1` the Potency was “inactive”. With `O=C1CC2(CCN(C(=O)COc3ccccc3F)CC2)Oc2ccccc21` the Potency was “inactive”. In the case of `Cc1cnc(C=O)c2cccc([N+](=O)[O-])c12`, the Potency is reported as “inactive”. In the case of `C=C1C(=O)[C@]23C[C@H]1CCC2[C@@]1(C)C(C[C@@H]3O)[C@](C)(C(=O)OC)CC[C@@H]1OC(C)=O` (stereo partly specified), the Potency is reported as active: 1 µM. With `COc1ccc(CN(C#N)c2nc(SC)nc(N(C)C)n2)cc1` the Potency was inconclusive: 35.5 µM [inhibitor, single point]. In the case of `CC(Sc1n[nH]c(N)n1)C(=O)C12CC3CC(CC(C3)C1)C2` (stereo unspecified), the Potency is reported as “inactive”. With `O=C(/C=C/c1ccccc1)c1ccccn1` the Potency was inconclusive: 11.2 µM [inhibitor, single point]. With `O=C(Nc1ncc2c(n1)CC(c1ccc(Cl)cc1)CC2=O)c1ccco1` (stereo unspecified) the Potency was “inactive”. With `O=C1C(=Cc2ccccc2Cl)CCc2ccccc21` the Potency was inconclusive: 11.2 µM [inhibitor, partial curve, poor fit]. For `CCS(=O)(=O)N1CCc2cc(C(=O)Nc3cccc(C(C)=O)c3)ccc21`, the Potency was “inactive”. For `Cc1ccnc(NC(=O)c2ccc3c(c2)OCO3)c1`, the Potency was inconclusive: 35.5 µM [inhibitor, single point]. For `COc1ccccc1NC(=O)Nc1nc(C(N)CC(C)C)cs1` (stereo unspecified), the Potency was inconclusive: 35.5 µM [inhibitor, partial curve, poor fit]. For `CC1=C(C(=O)Nc2ccccc2C(=O)NC2CCCCC2C)SCCO1` (stereo unspecified), the Potency was “inactive”. In the case of `CCCOc1cccc(C2c3c(-c4ccccc4O)n[nH]c3C(=O)N2Cc2ccco2)c1` (stereo unspecified), the Potency is reported as inconclusive: 14.1 µM [inhibitor, partial curve, poor fit]. For `O=C(COc1ccccc1)Nc1nc2cc3c(cc2s1)OCO3`, the Potency was inconclusive: 35.5 µM [inhibitor, single point]. For `Cc1ccc(C(=O)N/C(=C\c2ccc(Br)cc2)c2nc(=S)[nH][nH]2)cc1`, the Potency was inconclusive: 35.5 µM [inhibitor, single point]. With `COc1ccc(-c2nnc(SCC(=O)NC(=O)NCc3ccco3)o2)cc1` the Potency was inconclusive: 5.62 µM [inhibitor, single point]. In the case of `O=S(=O)(c1ccc(Br)cc1)N1CCN(c2nc(-c3ccccc3)nc3ccccc23)CC1`, the Potency is reported as “inactive”. For `COC(=O)CCCC(=O)NCC1(N(C)Cc2ccccc2)Cc2ccccc2C1`, the Potency was “inactive”. For `CC(=O)c1ccc(NC(=O)CSc2cn(CC(=O)N(C(C)C)C(C)C)c3ccccc23)cc1`, the Potency was inconclusive: 20 µM [inhibitor, partial curve, poor fit]. With `Cc1c(C(=O)O)sc(S(=O)(=O)N2CCN(C(=O)Cc3ccc(F)cc3)CC2)c1C(=O)O` the Potency was inconclusive: 35.5 µM [inhibitor, single point]. For `Cc1cc(N2CCOCC2)ccc1/C=C1/SC(=O)NC1=O`, the Potency was “inactive”. For `CCCCCCNC(=O)OC12CN(C(=O)OC(C)C)N(C(=O)OC(C)C)CC1(O)CN(S(=O)(=O)c1ccc(C)cc1)C2` (stereo unspecified), the Potency was inconclusive: 20 µM [inhibitor, single point]. In the case of `O=C(Nc1ccccc1C(=O)N1CCN(c2cccc(Cl)c2)CC1)C1=CSCCO1`, the Potency is reported as “inactive”. With `COc1ccc(CNC(=O)CCCn2nc(C)c3c(C)n(-c4ccc(C)cc4)nc3c2=O)cc1` the Potency was inconclusive: 0.251 µM [inhibitor, full curve, poor fit]. In the case of `Cc1cccc(NC(=O)c2nc[nH]c2C(=O)NCCCNC(=O)c2[nH]cnc2C(=O)Nc2cccc(C)c2)c1`, the Potency is reported as “inactive”. With `Cc1ccccc1OCc1nc2ccccc2n1Cc1ccccc1Cl` the Potency was inconclusive: 35.5 µM [inhibitor, single point]. With `COc1ccc(C2=NS(=O)(=O)N(C)C(C(=O)N(C)Cc3ccccc3)=C2)cc1OC` the Potency was inconclusive: 35.5 µM [inhibitor, single point]. For `COc1ccc(N(C(=O)c2ccccc2C)S(=O)(=O)c2cccs2)cc1`, the Potency was “inactive”. With `C/C(=N/NC(=O)c1cc2ccccc2cc1O)c1ccco1` the Potency was inconclusive: 22.4 µM [inhibitor, single point]. In the case of `CCOc1ccc(N(C)S(=O)(=O)c2ccc(C)c(C(=O)N3CCN(Cc4ccc5c(c4)OCO5)CC3)c2)cc1`, the Potency is reported as “inactive”. In the case of `O=C(Cn1nc(-c2ccc(Cl)cc2)c2ccccc2c1=O)Nc1cccc(C(F)(F)F)c1`, the Potency is reported as active: 11.2 µM. With `CC1CN(c2ncnc3c2oc2ccccc23)CC(C)O1` (stereo unspecified) the Potency was “inactive”. In the case of `CCCCCCCCC(=O)N/N=C(\C)c1ccc(O)cc1O`, the Potency is reported as inconclusive: 35.5 µM [inhibitor, single point]. With `CN(CCC#N)c1ccc(/C=C/c2ccnc3ccccc23)cc1` the Potency was inconclusive: 35.5 µM [inhibitor, single point]. With `OCC1(Cc2ccccc2)CCCN(Cc2ccc3c(c2)OCCO3)C1` (stereo unspecified) the Potency was “inactive”. For `CC1CCN(S(=O)(=O)c2ccc3nc(NCc4ccccc4)ccc3c2)CC1`, the Potency was inconclusive: 11.2 µM [inhibitor, partial curve]. With `CC(=O)c1ccc(OCC(O)CN2C(C)CCCC2C)cc1` (stereo unspecified) the Potency was inconclusive: 2.82 µM [inhibitor, full curve, poor fit]. With `CCOC(=O)C(C)Sc1nnc2n1C(C)(C)Cc1ccccc1-2` (stereo unspecified) the Potency was inconclusive: 20 µM [inhibitor, partial curve, poor fit]. For `NC(=S)N/N=C1\CC(n2nnnc2-c2ccccc2)C2COC1O2` (stereo unspecified), the Potency was inconclusive: 35.5 µM [inhibitor, single point]. With `Cc1cccc(CCN(Cc2cc3cccc(C)c3[nH]c2=O)C(=O)N2CCOCC2)c1` the Potency was “inactive”. With `O=C(CC1C(=O)NCCN1C(=O)Nc1ccccc1)Nc1cc(Cl)cc(Cl)c1` (stereo unspecified) the Potency was inconclusive: 17.8 µM [inhibitor, single point]. For `O=C(NC(c1ccccc1)c1ccccc1)c1cccc(S(=O)(=O)NCc2ccccc2)c1`, the Potency was inconclusive: 35.5 µM [inhibitor, partial curve, poor fit]. For `Cc1cccc(C)c1NC(=O)c1ccc([N+](=O)[O-])s1`, the Potency was inconclusive: 35.5 µM [inhibitor, single point]. In the case of `O=C(/C=C/c1ccco1)Nc1nc(-c2ccccn2)cs1`, the Potency is reported as inconclusive: 3.55 µM [inhibitor, single point]. With `Cc1ccc(C(=O)Nc2c(-c3cccs3)c(=O)c3ccccc3n2C)cc1` the Potency was inconclusive: 35.5 µM [inhibitor, single point]. In the case of `COc1ccc(NS(=O)(=O)c2ccc(-c3cnc(C4CC4)o3)cc2)cc1Cl`, the Potency is reported as inconclusive: 11.2 µM [inhibitor, partial curve, poor fit]. With `O=C(CN1C(=O)NC2(CCCc3ccccc32)C1=O)c1ccc(Br)cc1` (stereo unspecified) the Potency was “inactive”. For `c1ccc(-n2nnc3c(N4CCOCC4)ncnc32)cc1`, the Potency was “inactive”. For `COc1c(Cl)cc(Cl)cc1/C=C/C(=O)c1ccc(NC(=O)c2cccs2)cc1`, the Potency was inconclusive: 22.4 µM [inhibitor, single point]. For `Cc1ccc(NC(=O)CCC(=O)NNC(=S)Nc2ccccc2)c(C)c1`, the Potency was “inactive”. For `O=C(CCSCc1cnn(-c2ccccc2)c1-n1cccc1)NCc1ccccc1Cl`, the Potency was inconclusive: 35.5 µM [inhibitor, partial curve, poor fit]. In the case of `Cc1ccc(Cl)cc1N1CCN(C(=O)c2ccc(CS(=O)c3ccccc3)o2)CC1` (stereo unspecified), the Potency is reported as inconclusive: 25.1 µM [inhibitor, single point].
